In all, about 110,000 compounds went through this assay and about 230 (0.21%) showed an effect of 50% or more. The list shows a part of the results.
molecular target: DPAP1 (Plasmodium falciparum, UniProt Q8IIJ9); test: primary screen, percent inhibition; read by cleavage of a fluorogenic dipeptide substrate; higher = more effect of the substance; set-up: species or system P. falciparum D10 trophozoite lysates; single well
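Note: 30 min substrate incubation versus DMSO and 10 µM JCP410 controls.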

DPAP1, sequence (Q8IIJ9 whole entry, looked up): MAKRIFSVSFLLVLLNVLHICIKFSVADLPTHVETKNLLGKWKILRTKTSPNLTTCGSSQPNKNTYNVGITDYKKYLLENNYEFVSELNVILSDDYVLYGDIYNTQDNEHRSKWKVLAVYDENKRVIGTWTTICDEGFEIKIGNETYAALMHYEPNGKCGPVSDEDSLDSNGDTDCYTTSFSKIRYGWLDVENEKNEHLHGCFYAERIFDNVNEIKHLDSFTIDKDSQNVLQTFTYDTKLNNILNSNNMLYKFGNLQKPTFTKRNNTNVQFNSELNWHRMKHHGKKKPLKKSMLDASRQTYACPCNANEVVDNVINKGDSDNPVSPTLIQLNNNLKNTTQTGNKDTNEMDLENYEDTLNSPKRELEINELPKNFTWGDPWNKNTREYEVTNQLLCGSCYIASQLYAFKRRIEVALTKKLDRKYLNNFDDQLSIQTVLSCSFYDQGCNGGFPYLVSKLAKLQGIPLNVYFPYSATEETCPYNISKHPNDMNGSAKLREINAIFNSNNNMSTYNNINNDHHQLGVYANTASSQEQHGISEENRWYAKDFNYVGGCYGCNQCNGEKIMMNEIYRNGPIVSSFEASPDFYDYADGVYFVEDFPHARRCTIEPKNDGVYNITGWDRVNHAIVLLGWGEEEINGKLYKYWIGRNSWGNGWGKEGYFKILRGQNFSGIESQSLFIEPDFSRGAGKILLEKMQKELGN

Row | Compound | % Inhibition @ 10 uM [%]
1 | CCN(CC)CCN(CC)Cc1ccc(SC)cc1 | -0.0953
2 | Oc1cc(C(F)(F)F)nn1-c1nc2ccccc2s1 | 6.12
3 | CCOc1ccc2nc(SCC(=O)N3CCN(S(=O)(=O)c4ccc(C)cc4)C3)sc2c1 | 1.74
4 | O=C(CN1C(=O)c2ccccc2S1(=O)=O)N1CCC(Cc2ccccc2)CC1 | 2.95
5 | CC1CCN(c2nn3nnnc3c3ccccc23)CC1 | 0.977
6 | O=C(c1ccccc1)c1ccc(C(=O)N2CCN(c3nc4ccccc4o3)CC2)o1 | -2.63
7 | O=C(NCc1ccco1)c1ccc(-n2ccc3ccccc32)s1 | 3.45
8 | Cc1nn(C)cc1CNC(=O)c1ccc(F)cc1 | -3.05
9 | COC(=O)C1=CN(C(C)C)C=C(C(=O)OC)C1c1ccccc1OC(C)C | -3.46
10 | CCOC(=O)c1c(C=O)c2ccccc2n1Cc1ccccc1F | -3.53
11 | Cc1ccc(-c2nn(-c3ccccc3)cc2C=O)cc1 | 1.76
12 | OCCN1CCN(CC(c2ccccc2)c2ccccc2)CC1 | -1.5
13 | Cc1nc2c3c(-c4ccccc4)nc(N4CCCCC4)nc3nn2c(C)c1CCC(=O)O | -2.87
14 | CCCSc1oc(-c2ccccc2)nc1S(=O)(=O)c1ccccc1 | -8.16
15 | CCCN1CCN(C(=O)c2cc3ccc4cccnc4c3[nH]2)CC1 | -4.41
16 | CC(=O)ON1C(=O)C(c2ccccc2)=C(c2ccccc2)C1=O | 82
17 | Cc1cc2c(c(SCC(=O)NCc3ccccc3Cl)n1)C(=O)OC2 | -0.834
18 | CCCNC(=O)Cn1ncc2c3ccccc3n(Cc3ccccc3F)c2c1=O | 3.4
19 | Cc1cc(C)cc(-n2nnc(-c3nc(-c4ccc(Cl)cc4)no3)c2N)c1 | 5.95
20 | Cn1c2ccccc2c2cnn(CC(=O)NC3CCCC3)c(=O)c21 | -7.6
21 | O=C1[C@H]2CC=CC[C@H]2C(=O)N1CNc1ccc(F)cc1 | -0.68
22 | Cc1oc2ccc(O)c(CN3CCCC3)c2c1C(=O)OCCOc1ccccc1 | -4.82
23 | CC1CCN(S(=O)(=O)c2ccc(NC(=O)C(F)(F)F)cc2)CC1 | -0.759
24 | Cc1cc(C)c2oc(C(=O)N(Cc3ccccc3)C3CCS(=O)(=O)C3)cc(=O)c2c1 (stereo not drawn) | 6.56
25 | COc1ccccc1C1SCC(=O)Nc2c1c(C)nn2C1CCOC(C)(C)C1 (stereo not drawn) | 2.89
26 | Cc1ccc2occ(/C=C/C(=O)c3ccccc3O)c(=O)c2c1 | -2.14

Row | Compound | % Inhibition @ 10 uM [%]
27 | Cc1ccccc1C(=O)Nc1ccc(F)cc1F | -1.25
28 | O=C(NCc1cccnc1)c1cc(-c2ccc(O)cc2)on1 | -2.65
29 | Cc1cc(C)c(NC(=O)C2CCCN2c2ccccc2)c(C)c1 (stereo not drawn) | 1.43
30 | CC(C)OCC(O)CNC(C)(C)CC(C)(C)C (stereo not drawn) | 8.71
31 | C=CCOc1ccc(/N=c2/onc(C)cc2-c2ccccc2)cc1 | -2.53
32 | CCOC(=O)c1ccc(-c2ccc(/C=C(/C#N)C(=O)N3CCOCC3)o2)cc1 | -1.84
33 | C=CCn1c(=O)c2c(nc3n2CCS3)n(C)c1=O | -1.2
34 | CCOc1cc(C(=O)Nc2sc3c(c2C#N)CCC(C)C3)cc(OCC)c1OCC (stereo not drawn) | 1.25
35 | O=C(c1cc2c(Cl)ccc3c2n1CCO3)N1CCOCC1 | 2.48
36 | O=C(CCCCCN1C(=O)c2ccccc2C1=O)Nc1ccc(C(=O)O)cc1 | -3.16
37 | CCOC(=O)c1c(NC(=O)c2ccc(C(F)(F)F)cc2)sc2c1CCCC2 | -1.93
38 | COc1ccc(C(=O)N/C(=C\c2ccc3c(c2)OCO3)C(=O)NCC(=O)O)cc1 | -4.76
39 | OC(COc1ccccc1)Cn1ccnc1 (stereo not drawn) | 3.16
40 | COc1cc(C)c(CNCCc2ccc(OC)c(OC)c2)cc1C | 9.1
41 | Cc1sc(N)nc1C12CC3CC(CC(C3)C1)C2 | -0.0369
42 | O=C(CCCOc1ccc(Cl)cc1Cl)NCc1ccco1 | 8.74
43 | CC1=C(c2ccc(C(C)C)cc2)S(=O)(=O)N=C1NC1CCC(C)CC1 (stereo not drawn) | 2.27
44 | CC1CCN(C(=O)c2cnn(-c3ccccc3Cl)c2C2CCN(C(=O)OC(C)(C)C)CC2)CC1 | 0.184
45 | Cc1ccnn1-c1nc(-c2ccc(F)cc2)cc(C(F)(F)F)n1 | -3.12
46 | CCNC(=S)Nc1sc2c(c1C(=O)OCC)CC(C)(C)OC2 | 4.57
47 | COc1ccc(CCN2CC(C(=O)NCc3ccc(C)cc3)CC2=O)cc1OC (stereo not drawn) | 1.62
48 | COc1ccc(-c2noc(N3CCC(C(=O)NCc4ccc(F)cc4)CC3)n2)cc1 | -3.73
49 | CCCCc1ccc(NC(=O)C2C3C=CC(O3)C2C(=O)O)cc1 (stereo not drawn) | 2.38
50 | CC(=O)C1=C(O)C(=O)N(CO)C1c1ccc(F)cc1 (stereo not drawn) | 0.161
51 | CC1(C)CC(NC(=O)CCC(=O)O)CC(C)(C)N1 | -5.07
52 | Cc1ccc(S(=O)(=O)N(CC(=O)NCc2ccco2)Cc2cccc(C)c2)cc1 | -0.661

Row | Compound | % Inhibition @ 10 uM [%]
53 | CC(=O)c1cccc(NS(=O)(=O)c2ccc(N)cc2)c1 | -1.36
54 | CCOc1ccc2nc(N3CCCC(C(=O)N4CCN(c5ncccn5)CC4)C3)sc2c1 (stereo not drawn) | 1.8
55 | COc1ccc(-n2c(Cc3cccn3C)nnc2SCC(=O)NC2CCCC2)cc1 | -9.6
56 | O=C(c1cccnc1NCc1ccccc1)N1CCOCC1 | -4.58
57 | Cc1ccc(-c2cc(C(=O)Nc3ccc(S(N)(=O)=O)cc3)c3ccccc3n2)s1 | -0.519
58 | COc1ccccc1-c1nnn2c1nc(O)c1ccccc12 | -5.12
59 | Cn1c(=O)c2c(nc(CO)n2C)n(C)c1=O | 2.5
60 | O=C(O)C1CSC(c2ccccc2O)=N1 (stereo not drawn) | 2.9
61 | O=C1N=C(Nc2ccccc2)S/C1=C/c1cccc(C(=O)O)c1 | -0.312
62 | C=CCNC(=O)Cn1c(=O)sc2ccccc21 | -0.636
63 | CCOc1ccc2nc(NC(=O)Cn3c(-c4ccc(F)cc4)cc(C(C)=O)c3C)sc2c1 | -1.88
64 | COc1ccccc1C(=O)NCCOc1ccc(C(C)(C)C)cc1 | -1.17
65 | Cc1ccc2oc(=O)c3cnn(CC(=O)N(C(C)C)C4CCCCC4)c3c2c1 | -3.45
66 | CCOC(=O)c1cnc(SCc2cccc(Cl)c2)nc1N | 0.189
67 | O=C(O)c1ccc2oc(=O)c(S(=O)(=O)c3ccccc3)cc2c1 | 0.44
68 | CCOc1cc(CNc2ccc3c(c2)OCCO3)cc(Br)c1OCC(N)=O | 1.83
69 | CC(=O)c1cccc(Oc2nc(C)nc3sc4c(c23)CCCC4)c1 | 2.7
70 | COc1ccc(Cl)cc1C(=O)NCCn1ccc2ccccc21 | -1
71 | CCCCOc1ccc(C(C)(O)CCN2CCOCC2)cc1 (stereo not drawn) | -2.17
72 | CSc1nc2c(c(=O)[nH]c(=O)n2C)n1C/C=C(/C)Cl | 1.54
73 | CCCOc1ccc(Oc2nc(NC(C)(C)C)nc(N(C)C)n2)nn1 | -4.91
74 | O=C(O)c1ccc(OC2CSC2)cc1 | -0.386
75 | CCc1ccc(Cn2nnc3c(O)nc(C4CCN(C(=O)c5ccccc5F)CC4)nc32)cc1 | 5.35
76 | COc1cc2c(cc1OC)CN(Cc1c[nH]c3ccccc13)CC2 | -2.56
77 | OCCC1CCCCN1C/C=C/c1ccccc1 (stereo not drawn) | -1.21
78 | CCN1CCN(Cc2ccc(Br)cc2)CC1 | -0.969

Row | Compound | % Inhibition @ 10 uM [%]
79 | COc1cccc2c1cc1c(=O)n(CC(=O)NCCc3cccs3)nc(C)n12 | 0.0198
80 | CNC(=O)/C(=C/c1ccco1)NC(=O)c1ccccc1 | 0.317
81 | CC(NC(=O)c1ccc(CS(=O)(=O)Cc2ccccc2Cl)o1)c1ccccc1 (stereo not drawn) | -0.267
82 | O=C(C1COc2cc(S(=O)(=O)NCc3ccccc3Cl)ccc2O1)N1CCCCCC1 (stereo not drawn) | -4.75
83 | CC(C)(C)c1ccc(C(=O)n2nc(-c3cccnc3)nc2NCc2ccc(F)cc2)cc1 | -2.92
84 | COc1ccc(N(C(C)C(=O)Nc2ccc(OC)c(OC)c2)S(C)(=O)=O)cc1 (stereo not drawn) | 0.389
85 | O=C(CN1C(=O)c2cccc3cccc1c23)Nc1ccc(F)c(F)c1 | -8.43
86 | CC(=O)N[C@H]1[C@H](Oc2ccc(C)cc2)O[C@@H]2COC(C)(C)O[C@H]2[C@@H]1O | -1.64
87 | CCOc1cc(C2C(C#N)=C(N)Oc3cc(O)ccc32)ccc1OCc1ccc(F)cc1 (stereo not drawn) | 3.87
88 | Cc1ccc2oc(-c3cc(NC(=O)c4ccncc4)ccc3C)nc2c1 | 0.661
89 | Cc1ccc(NC(=O)CC2Sc3ccccc3NC2=O)cc1 (stereo not drawn) | -2.17
90 | COC(=O)Nc1ccc(S(=O)(=O)NCC(=O)O)cc1 | -0.0369
91 | COc1ccc(OC)c(CCNC(=O)c2cnn(C)c2C2CCN(C(=O)OC(C)(C)C)CC2)c1 | -4.03
92 | Cc1cc(C)n(CC(=O)c2ccc(F)c(F)c2)n1 | 1.66
93 | COc1ccc([N+](=O)[O-])cc1NC1C2CC3CC(C2)CC1C3 (stereo not drawn) | 3.82
94 | O=C(c1ccc(Cl)c(Cl)c1)N1CCCC1 | -0.687
95 | COc1cc(NS(=O)(=O)c2ccc(NC(=O)c3ccccc3)cc2)nc(OC)n1 | 11.8
96 | COCCNC(=O)c1nn2c(c1Cl)NC(c1cccs1)CC2C(F)(F)F (stereo not drawn) | -6.69
97 | CC1=C(C#N)C(C(F)(F)F)(C(F)(F)F)NC(c2cccc(Cl)c2)=N1 | 3.19
98 | C=CCNC(=S)Nc1sc2c(c1C(=O)OCC)CC(C(C)C)OC2 (stereo not drawn) | -3.33
99 | Cc1ccc(S(=O)(=O)c2nc(S(=O)(=O)c3ccc(C)cc3)c(NCC3CCCO3)s2)cc1 (stereo not drawn) | 0.627
100 | C(=C\c1ccccc1)/CN1CCN(Cc2ccco2)CC1 | 0.847
101 | CCOc1ccccc1NC(=O)CN1C(=O)c2ccccc2C1=O | -5
102 | CC1=CC(C)(C)N(C(=O)c2ccc(Br)cc2)c2ccccc21 | -3.77

Source: article PMC6919601, “Identification of Plasmodium dipeptidyl aminopeptidase allosteric inhibitors by high throughput screening” (PLoS ONE, 2019)
